The antibiotic and cytotoxicity screens of Wong et al. (2023)
The other results are listed elsewhere or left out.

Experiments:
[1] = system: HSkMC (human skeletal muscle cells); assay: cytotoxicity call (relative viability < 0.9); conditions: 10 µM
[2] = system: HepG2; assay: cytotoxicity call (relative viability < 0.9); conditions: 10 µM
[3] = system: S. aureus RN4220; assay: growth inhibition call (relative growth <= 0.2); conditions: 50 µM

COc1ccc(C#Cc2ccc3c(c2)O[C@@H](CN(C)C(C)=O)[C@H](C)CN([C@H](C)CO)S3(=O)=O)cc1
inactive: cytotoxicity call [1] | cytotoxicity call [2] | growth inhibition call [3]

Cn1c(=O)c2c(NCCO)ccnc2n(C)c1=O
inactive: cytotoxicity call [1] | cytotoxicity call [2] | growth inhibition call [3]

Cc1ccc(S(=O)(=O)N(C)C[C@H]2Oc3c(NC(=O)C4CCOCC4)cccc3C(=O)N([C@H](C)CO)C[C@H]2C)cc1
inactive: cytotoxicity call [1] | cytotoxicity call [2] | growth inhibition call [3]

C[C@@H]1CCCCO[C@H](CN(C)C(=O)Cc2ccccc2)[C@@H](C)CN([C@H](C)CO)C(=O)c2cc(NC(=O)Nc3ccccc3)ccc2O1
inactive: cytotoxicity call [1] | cytotoxicity call [2] | growth inhibition call [3]

C[C@@H]1CCCCO[C@@H](CN(C)C(=O)CCC(F)(F)F)[C@@H](C)CN([C@@H](C)CO)C(=O)c2cc(NC(=O)Nc3ccccc3)ccc2O1
inactive: cytotoxicity call [1] | cytotoxicity call [2] | growth inhibition call [3]

Cc1ccc(S(=O)(=O)N(C)C[C@@H]2OCCCC[C@H](C)Oc3ccc(NC(=O)Nc4ccc(F)cc4)cc3C(=O)N([C@@H](C)CO)C[C@@H]2C)cc1
inactive: cytotoxicity call [1] | cytotoxicity call [2] | growth inhibition call [3]

C[C@@H]1CN([C@@H](C)CO)C(=O)c2ccccc2-c2ccccc2CO[C@@H]1CN(C)C(=O)Nc1ccc(-c2ccccc2)cc1
inactive: cytotoxicity call [1] | cytotoxicity call [2] | growth inhibition call [3]

CC(C)NC(=O)Nc1ccc2c(c1)C(=O)N([C@H](C)CO)C[C@@H](C)[C@H](CN(C)C(=O)Nc1ccccc1)OCCCC[C@@H](C)O2
inactive: cytotoxicity call [1] | cytotoxicity call [2] | growth inhibition call [3]
